Assay results as given in PubChem BioAssay AID743279 (National Center for Advancing Translational Sciences (NCATS), 2014).
The whole screen tested about 360,000 compounds, of which about 17,000 (4.7%) were called active. The shares of active, inactive and inconclusive entries below differ from those in the screen. No stated cut-off is given here; in the data, active means activity change below about -50%; inconclusive means mostly about -30% to -49%; inactive means weaker than that.

Test: qHTS for Inhibitors of Inflammasome Signaling: IL-1-beta AlphaLISA Primary Screen
Details: THP-1 LPS/ATP IL-1B secretion, 16 h, at 57.5 µM, hits give low values
Summary of the method: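 Secreted IL-1B measured by AlphaLISA bead assay after 16 h compound exposure of THP-1 cells; compounds (final up to 57.5 uM) added 1 h before LPS (250 ng/mL) and ATP (1.25 mM) stimulation; lower signal means less secretion.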
On the % scale 0 is the no-effect control and ±100 the full control effect.

SMILES	activity change
O=C1NC(=O)C(=Cc2coc3ccccc3c2=O)C(=O)N1	inconclusive: -43.9%
Fc1ccc(Cn2nnnc2CN2CCC(n3nnc4cc(C(F)(F)F)ccc43)CC2)cc1	inconclusive: -43.8%
COc1ccc(CCNCc2cccn2C)cc1	inconclusive: -34%
CCC(=NCCc1c[nH]c2ccccc12)c1c(O)n(C)c(=O)n(C)c1=O	inconclusive: -31.5%
O=C1NCN(c2ccccc2)C12CCN(C(CCc1ccccc1)c1nnnn1C1CCCC1)CC2 (configuration not stated)	inconclusive: -47.4%
CCOCN(C(=O)CCl)c1c(C)cccc1CC	active: -59.6%
C[C@]12CCC(=O)C=C1C=CC1C2CC[C@]2(C)C(=O)CCC12 (some centres not stated)	inactive: -4.5%
COC(=O)C1=C(c2ccccc2OCc2ccccc2)C[C@@H]2CC[C@H]1N2C(=O)NC1CCN(Cc2ccccc2)CC1	active: -65%
CN1C2CCC1CC(OC(=O)c1ccc(Cl)cc1)C2 (configuration not stated)	inactive: -8.15%
O=C(OCC(=O)c1ccc([N+](=O)[O-])cc1)/C(=C\c1ccc(Cl)cc1)NC(=O)c1ccccc1	inconclusive: -37.9%
COc1ccc(Cn2c(N)c(C(=O)NCc3ccco3)c3nc4ccccc4nc32)cc1OC	inconclusive: -32.5%
N=C1c2ccccc2CN1NC(=O)c1ccc(Cl)cc1	inactive: 7.73%
CC(=O)CC(c1ccc2c(c1)OCO2)c1c(O)c2ccccc2oc1=O (configuration not stated)	inactive: -3.45%
CN(C)C(=O)Oc1ccc(Br)cc1C(=O)Nc1ccc(F)c(Cl)c1	active: -59.2%
CCn1c(=N)n(Cc2ccccc2F)c2ccccc21	inconclusive: -33.3%
CCn1c(O)c(C=Nc2ccc(N3CCOCC3)cc2)c(=O)n(CC)c1=S	inconclusive: -30.8%
O=c1[nH]c(=O)n(CCC2=CCCCC2)c(O)c1C=NC1CCN(Cc2ccccc2)CC1	inconclusive: -34.1%
CCCc1nc2ccc(Br)cc2c(=O)n1-c1ccc([N+](=O)[O-])c(C(F)(F)F)c1	inconclusive: -34.7%
CCc1ccc(C2=NN(CCC(=O)N3CCC4(CC3)OCCO4)C(=O)CC2)cc1	inactive: -1.9%
Oc1c(Cl)cccc1Cc1cc(Cl)cc(Cl)c1O	inconclusive: -48.7%
CN1CCN(CCC(C#N)(c2ccccc2)c2ccccc2)CC1	inconclusive: -35.4%
CCCC1(CCC)C(=O)NC(=Nc2ccccc2)NC1=O	inactive: -1.39%
